Experimental data taken from patent publication US4198405A, “Prostaglandine derivatives” (priority 1978, dated 1980).
At least one read-out could not be matched to a standard name with certainty.

Tested on: ICR-JCL pregnant mice
Assay: Test of abortion by 1 shot subcutaneous injection (Table 4)
Assay type: in vivo
Conditions: single s.c., 4th day of pregnancy; for Result of parturition: 5 mice

| SMILES | Effect of abortion (8.5 × 10^-8 mol/mouse) [%] | Result of parturition (8.5 × 10^-8 mol/mouse) | Effect of abortion (5.6 × 10^-8 mol/mouse) [%] | Result of parturition (5.6 × 10^-8 mol/mouse) |
| --- | --- | --- | --- | --- |
| CCCCC[C@H](O)/C=C/[C@@H]1[C@@H](C/C=C\CCCC(=O)OCC(=O)OCC(=O)[C@H]2CC[C@H]3[C@@H]4CCC5=CC(=O)CC[C@]5(C)[C@H]4CC[C@]23C)[C@@H](O)C[C@H]1O [PGFP] | 80 | 1 |  |  |
| CCCCC[C@@H](/C=C/[C@H]1[C@H](OC(C)=O)CC(=O)[C@@H]1C/C=C\CCCC(=O)OCC(=O)O[C@H]1CC[C@H]2[C@@H]3CCc4cc(OC(=O)c5ccccc5)ccc4[C@H]3CC[C@]12C)OC(C)=O [PGE2 E-2AC BA] |  |  | 100 | 0 |
| CCCCC[C@H](O)/C=C/[C@H]1[C@H](O)CC(=O)[C@@H]1CCCCCCC(=O)OCC(=O)O[C@H]1CC[C@H]2[C@@H]3CCc4cc(OC(=O)c5ccccc5)ccc4[C@H]3CC[C@]12C [PGE1 E-BA] |  |  | 80 | 1 |
| CCCCC[C@H](O)/C=C/[C@@H]1[C@@H](C/C=C\CCCC(=O)OCC(=O)O[C@H]2CC[C@H]3[C@@H]4CCc5cc(OC(=O)c6ccccc6)ccc5[C@H]4CC[C@]23C)[C@@H](O)C[C@H]1O [PGFE-BA] |  |  | 80 | 1 |
| CCCCC[C@@H](/C=C/[C@H]1[C@H](OC(C)=O)CC(=O)[C@@H]1CCCCCCC(=O)OCC(=O)O[C@H]1CC[C@H]2[C@@H]3CCc4cc(OC(=O)c5ccccc5)ccc4[C@H]3CC[C@]12C)OC(C)=O [PEG1 E-2AC BA] |  |  | 100 | 0 |
| CCCCC[C@@H](/C=C/[C@@H]1[C@@H](C/C=C\CCCC(=O)OCC(=O)OCC(=O)[C@H]2CC[C@H]3[C@@H]4CCC5=CC(=O)CC[C@]5(C)[C@H]4CC[C@]23C)[C@@H](OC(C)=O)C[C@H]1OC(C)=O)OC(C)=O [PGFP-3AC] | 100 | 0 |  |  |
| CCCCC[C@H](O)/C=C/[C@@H]1[C@@H](C/C=C\CCCC(=O)OCC(=O)O[C@H]2CC[C@H]3[C@@H]4CCc5cc(OC(=O)CC)ccc5[C@H]4CC[C@]23C)[C@@H](O)C[C@H]1O [PGFE-Pr] |  |  | 80 | 1 |
| CCCCC[C@H](O)/C=C/[C@H]1[C@H](O)CC(=O)[C@@H]1C/C=C\CCCC(=O)O [PGE2, reference compound] | 0 | 5 |  |  |
| CCCCC[C@H](O)/C=C/[C@@H]1[C@@H](C/C=C\CCCC(=O)O)[C@@H](O)C[C@H]1O [PGF2 α, 9α,11α,15α-trihydroxy-5(cis)-13(trans)-prostadienoic acid, reference compound] | 0 | 5 |  |  |
| CCCCC[C@@H](/C=C/[C@@H]1[C@@H](C/C=C\CCCC(=O)OCC(=O)O[C@H]2CC[C@H]3[C@@H]4CCc5cc(OC(=O)c6ccccc6)ccc5[C@H]4CC[C@]23C)[C@@H](OC(C)=O)C[C@H]1OC(C)=O)OC(C)=O [PGFE-3AC-BA] |  |  | 100 | 0 |
| CCCCC[C@H](O)/C=C/[C@H]1[C@H](O)CC(=O)[C@@H]1C/C=C\CCCC(=O)OCC(=O)O[C@H]1CC[C@H]2[C@@H]3CCc4cc(OC(=O)c5ccccc5)ccc4[C@H]3CC[C@]12C [PGE2 E-BA] |  |  | 80 | 1 |
